T1: recombinant extracellular domain of human TROP2 (human, UniProt P09758 27-274)
T1 construct: extracellular domain; also called Human Trop 2 ECD; Trop2 ECD
T1 sequence (looked up): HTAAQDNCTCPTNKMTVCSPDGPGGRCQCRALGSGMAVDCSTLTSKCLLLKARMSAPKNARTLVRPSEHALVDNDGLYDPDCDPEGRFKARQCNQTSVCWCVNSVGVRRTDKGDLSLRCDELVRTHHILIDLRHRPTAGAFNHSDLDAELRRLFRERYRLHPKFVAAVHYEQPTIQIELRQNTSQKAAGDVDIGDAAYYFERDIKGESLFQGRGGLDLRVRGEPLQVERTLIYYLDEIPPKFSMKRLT


Biological target: T1, recombinant extracellular domain of …
Test: ELISA, Trop 2 ECD coated at 0.5 ug/mL, anti-human Fc HRP
Description: Human Trop 2 ECD at concentration of 0.5 μg/mL was coated on 96-well plates at 4° C. for overnight. The plates were then blocked with 3% BSA-PBST for 1 h at room temperature. […] After incubation goat anti-human FC secondary antibody (HRP) (Sinobiological, SSA001) was added at a ratio of 1:100000 and incubated at room temperature for 60 min again. Following the wash, the plate was treated with TMB solution (Sigma, T0440) as an HRP substrate, and the reaction was stopped with 1 M H₂SO₄. The absorbance for each well was detected at 450 nm wavelength.

binding result | Binder
binds | ADC-2 (other, C-terminal GG of LPETGG removed by Sortase A; the T of LPET is joined by a peptide bond to the G3 of Linker-Payload 3 (drug-linker), Antibody-drug conjugate of GQhRS7 with Linker-Payload 3) heavy: QVQLQQSGSELKKPGASVKVSCKASGYTFTNYGMNWVKQAPGQGLKWMGWINTYTGEPTYTDDFKGRFAFSLDTSVSTAYLQISSLKADDTAVYFCARGGFGSSYWYFDVWGQGSLVTVSSASTKGPSVFPLAPSSKSTSGGTAALGCLVKDYFPEPVTVSWNSGALTSGVHTFPAVLQSSGLYSLSSVVTVPSSSLGTQTYICNVNHKPSNTKVDKRV[human IgG1 Fc not shown] light: DIQLTQSPSSLSASVGDRVSITCKASQDVSIAVAWYQQKPGKAPKLLIYSASYRYTGVPDRFSGSGSGTDFTLTISSLQPEDFAVYYCQQHYITPLTFGAGTKVEIKRTVAAPSVFIFPPSDEQLKSGTASVVCLLNNFYPREAKVQWKVDNALQSGNSQESVTEQDSKDSTYSLSSTLTLSKADYEKHKVYACEVTHQGLSSPVTKSFNRGECGALPET
binds | Trodelvy (other, drug-linker (SN-38) conjugated; sites not stated, also called IMMU-132) heavy: QVQLQQSGSELKKPGASVKVSCKASGYTFTNYGMNWVKQAPGQGLKWMGWINTYTGEPTYTDDFKGRFAFSLDTSVSTAYLQISSLKADDTAVYFCARGGFGSSYWYFDVWGQGSLVTVSSASTKGPSVFPLAPSSKSTSGGTAALGCLVKDYFPEPVTVSWNSGALTSGVHTFPAVLQSSGLYSLSSVVTVPSSSLGTQTYICNVNHKPSNTKVDKRV[human IgG1 Fc not shown] light: DIQLTQSPSSLSASVGDRVSITCKASQDVSIAVAWYQQKPGKAPKLLIYSASYRYTGVPDRFSGSGSGTDFTLTISSLQPEDFAVYYCQQHYITPLTFGAGTKVEIKRTVAAPSVFIFPPSDEQLKSGTASVVCLLNNFYPREAKVQWKVDNALQSGNSQESVTEQDSKDSTYSLSSTLTLSKADYEKHKVYACEVTHQGLSSPVTKSFNRGEC

Reference: patent US20260174887A1 (published 2026)
